Results as given in patent publication US20240108766A1 (Bayer, published 2024).

T1: human LRRC15 expressed on cells (human, UniProt Q8TF66 22-581)
T1 sequence (looked up): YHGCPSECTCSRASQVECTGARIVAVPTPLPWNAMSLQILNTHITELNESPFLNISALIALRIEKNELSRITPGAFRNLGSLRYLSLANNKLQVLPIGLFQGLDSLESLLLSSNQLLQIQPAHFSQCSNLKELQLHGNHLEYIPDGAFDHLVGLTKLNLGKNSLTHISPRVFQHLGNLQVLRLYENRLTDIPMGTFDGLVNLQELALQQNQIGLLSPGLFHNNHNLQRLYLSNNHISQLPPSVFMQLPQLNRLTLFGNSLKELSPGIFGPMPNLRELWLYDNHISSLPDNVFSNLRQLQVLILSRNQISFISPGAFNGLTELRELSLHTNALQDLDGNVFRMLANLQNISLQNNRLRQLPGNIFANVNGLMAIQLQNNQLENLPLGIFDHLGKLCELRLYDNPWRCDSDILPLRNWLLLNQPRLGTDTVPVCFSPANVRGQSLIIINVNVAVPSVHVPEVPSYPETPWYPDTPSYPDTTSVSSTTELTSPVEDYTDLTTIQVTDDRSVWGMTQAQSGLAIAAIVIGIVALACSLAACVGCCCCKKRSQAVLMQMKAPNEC

B1: LRRC15-TTC (TPP-12942) (other)
heavy: EVQLVQSGAEVKKPGASVKVSCKASGYKFSSYWIEWVKQAPGQGLEWIGEILPGSDTTNYNEKFKDRATFTSDTSINTAYMELSRLRSDDTAVYYCARDRGNYRAWFGYWGQGTLVTVSS[human IgG1 constant region omitted]
light: DIQMTQSPSSLSASVGDRVTITCRASQDISNYLNWYQQKPGGAVKFLIYYTSRLHSGVPSRFSGSGSGTDYTLTISSLQPEDFATYFCQQGEALPWTFGGGTKVEIKRTVAAPSVFIFPPSDEQLKSGTASVVCLLNNFYPREAKVQWKVDNALQSGNSQESVTEQDSKDSTYSLSSTLTLSKADYEKHKVYACEVTHQGLSSPVTKSFNRGEC
modifications: as for the heavy chain; sites not stated; 3,2-HOPO chelator coupled by amide bonds (NHS/EDC; lysine ε-amino groups), complexed with thorium-227; sites not stated
B2: LRRC15-TTC (TPP-14389) (other)
heavy: EVQLLESGGGLVQPGGSLRLSCAASGFTFSGYMMSWVRQAPGKGLEWVSGIYPSPGYTYYADSVKGRFTISRDNSKNTLYLQMNSLRAEDTAVYYCAREKASDLFGSYSEALDYWGQGTLVTVSS[human IgG1 constant region omitted]
light: DIQMTQSPDSLSASVGDRVTITCRASQDVGSWLAWYQQKPGKAPKLLIFAASSLESGIPSRFSGSGSGTDFTLTISSLQPEDFATYYCQQANGFPLTFGGGTKVEIKRTVAAPSVFIFPPSDEQLKSGTASVVCLLNNFYPREAKVQWKVDNALQSGNSQESVTEQDSKDSTYSLSSTLTLSKADYEKHKVYACEVTHQGLSSPVTKSFNRGEC
modifications: as for the heavy chain; sites not stated; 3,2-HOPO chelator coupled by amide bonds (NHS/EDC; lysine ε-amino groups), complexed with thorium-227; sites not stated

Molecular target: T1, human LRRC15 expressed on cells
Assay: cell-based or functional assay

| Binder | IC50 (kBq/ml), cell viability, Cell Titer Glo, HT29-LRRC15 [kBq/ml] | IC50 (kBq/ml), cell viability, Cell Titer Glo, Saos-2 [kBq/ml] |
| --- | --- | --- |
| B1 | 0.08 | 0.35 |
| B2 | 0.09 | 0.33 |
